The text below walks through data of publication PMC9587022 (2022).

The target in experiment [1] is HA-tagged UL97, wild type, full length (pCGN-HA-UL97) (human cytomegalovirus (HCMV)) (UniProt P16788). Nature of the experiment: co-IP; U-2 OS co-transfected with HA-UL97 (WT, fragment or mutant) and Flag-14-3-3; 48 h; IP buffer 50 mM Tris pH 7.5, 0.1 M NaCl, 1% NP40; anti-HA mAb-magnetic beads; washed with NET gel buffer; Western blot. (A western blot detects proteins with antibodies after separation by electrophoresis.)

Experiment [2] deals with 14-3-3 ε, endogenous (human (endogenous in HEK-293T, HFF2/T and hTERT-BJ1)) (UniProt P62258). In words: co-IP; serum-starved hTERT-BJ1 infected with rBAD-HA97 or rBAD-HA97-S13A, MOI 3, lysates at 4 dpi; IP with anti-14-3-3 ε or θ antibody or rabbit IgG; Western blot.
Experiment [3] concerns the target T1, 14-3-3 θ, endogenous (human (endogenous in HEK-293T, HFF2/T and hTERT-BJ1)) (UniProt P27348).
T1 sequence: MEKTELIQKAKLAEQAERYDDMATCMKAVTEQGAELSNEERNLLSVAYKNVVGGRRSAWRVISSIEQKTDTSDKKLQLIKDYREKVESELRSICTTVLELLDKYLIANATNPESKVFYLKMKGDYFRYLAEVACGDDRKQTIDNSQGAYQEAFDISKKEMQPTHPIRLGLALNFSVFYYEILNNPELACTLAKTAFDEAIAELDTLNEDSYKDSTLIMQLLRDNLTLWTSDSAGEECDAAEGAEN
Described as above.

Experiment [4] addresses HA-tagged wild-type UL97 made by the recombinant HCMV rBAD-HA97 (strain AD169) (human cytomegalovirus (HCMV), strain AD169) (UniProt P16788). In words: co-IP; serum-starved hTERT-BJ1 infected with rBAD-HA97 or rBAD-HA97-S13A, MOI 3, lysates at 4 dpi; IP with anti-HA mAb-magnetic beads; Western blot for endogenous 14-3-3.
Experiment [5] deals with HA-tagged UL97 fragment N2 (1-486 aa) (human cytomegalovirus (HCMV)) (UniProt P16788). In words: co-IP; U-2 OS co-transfected with HA-UL97 (WT, fragment or mutant) and Flag-14-3-3; 48 h; IP buffer 50 mM Tris pH 7.5, 0.1 M NaCl, 1% NP40; anti-HA mAb-magnetic beads; washed with NET gel buffer; Western blot.
The target in experiment [6] is HA-tagged UL97 fragment C1 (279-707 aa) (human cytomegalovirus (HCMV)) (UniProt P16788). Described as above.
Experiment [7] concerns the target HA-tagged UL97 fragment N1 (1-278 aa) (human cytomegalovirus (HCMV)) (UniProt P16788). Described as above.
In experiment [8] the target is HA-tagged UL97 fragment C2 (487-707 aa) (human cytomegalovirus (HCMV)) (UniProt P16788). Described as above.
Experiment [9] has as its target 14-3-3 ε, endogenous (human (endogenous in HEK-293T, HFF2/T and hTERT-BJ1)) (UniProt P62258). Nature of the experiment: co-IP; HFF2/T infected with HCMV AD169, MOI 3, 10% FBS; lysates at 48 and 72 hpi; IP with anti-14-3-3 ε, anti-14-3-3 θ or anti-UL97 antibodies or normal rabbit IgG, protein A/G-magnetic beads; Western blot.
For experiment [10], the target named is T1, 14-3-3 θ, endogenous (human (endogenous in HEK-293T, HFF2/T and hTERT-BJ1)). Described as above.

No constants are given. Whether binding was seen depends on the method and setting. In cells and extracts the contact can be indirect. Some results given as binding are weak or reduced against the parent protein; the word gives no strength. For some of these results: Tags and fused reporters may be left off the sequences shown.

For “Flag-tagged 14-3-3θ (S145A/Y178H/C189I) (from UniProt P27348 1-245)”, the binding result in [1] is reported as “binds”.

Take “HA-tagged wild-type UL97 made by the recombinant HCMV rBAD-HA97 (strain AD169) (from UniProt P16788 1-707) (enzyme)”: the binding result in experiment [2] and in experiment [3] was “binds” each time.

As to “Flag-tagged 14-3-3θ (C134A) (from UniProt P27348 1-245)”, in [1], the binding entry is given as “binds”.

For “14-3-3 protein beta/alpha, endogenous (from UniProt P31946 1-246)”, the binding result in [4] was “binds”.

“Flag-tagged 14-3-3 ζ (from UniProt P63104 1-245)”: the binding entry in [1] is recorded as “no binding”.

On to “Flag-tagged 14-3-3η (S150A/Y183H/C194I) (from UniProt Q04917 1-246)”, for which the binding entry in [1] was “binds”.

For the molecule “14-3-3 ε, endogenous (from UniProt P62258 1-255)”, the binding entry in [4] is on record as “binds”.

“Flag-tagged 14-3-3γ (S150A/Y183H/C194I) (from UniProt P61981 1-247)”: in [1], the binding entry is listed as “binds”.

With “Flag-tagged 14-3-3β (S147A/Y180H/C191I) (from UniProt P31946 1-246)”, the binding result in experiment [1] is reported as “binds”.

Turning to “Flag-tagged 14-3-3σ (A147S/H180Y/I191C) (from UniProt P31947 1-248)”, the binding result in [1] is given as “binds”.

As to “Flag-tagged 14-3-3ζ (A134C) (from UniProt P63104 1-245)”, the binding entry in experiment [1] is “binds”.

On to “Flag-tagged 14-3-3 ε (from UniProt P62258 1-255)”, for which the binding entry in experiment [5] was “binds”; in experiment [6], “no binding”; in [7], “binds”; in [1], “binds”; in [8], “no binding”.

Take “Flag-tagged 14-3-3 β (from UniProt P31946 1-246)”: the binding result in experiment [5] was “binds”; in experiment [6], “no binding”; in experiment [7], “binds”; in experiment [1] it was “binds”; in [8], “no binding”.

For the molecule “Flag-tagged 14-3-3ε (S148A/Y181H/C192I) (from UniProt P62258 1-255)”, the binding result in experiment [1] was “binds”.

For the molecule “UL97 of HCMV strain AD169 in infected fibroblasts (from UniProt P16788 1-707) (enzyme)”, the binding result in experiment [9] and in experiment [10] was “binds” each time.

B1: 14-3-3 protein gamma, endogenous (protein, UniProt P61981 1-247)
chain: MVDREQLVQKARLAEQAERYDDMAAAMKNVTELNEPLSNEERNLLSVAYKNVVGARRSSWRVISSIEQKTSADGNEKKIEMVRAYREKIEKELEAVCQDVLSLLDNYLIKNCSETQYESKVFYLKMKGDYYRYLAEVATGEKRATVVESSEKAYSEAHEISKEHMQPTHPIRLGLALNYSVFYYEIQNAPEQACHLAKTAFDDAIAELDTLNEDSYKDSTLIMQLLRDNLTLWTSDQQDDDGGEGNN
On to B1, for which, in experiment [4], the binding result is “binds”.

B2: Flag-tagged 14-3-3 γ (protein, UniProt P61981 1-247)
chain: MVDREQLVQKARLAEQAERYDDMAAAMKNVTELNEPLSNEERNLLSVAYKNVVGARRSSWRVISSIEQKTSADGNEKKIEMVRAYREKIEKELEAVCQDVLSLLDNYLIKNCSETQYESKVFYLKMKGDYYRYLAEVATGEKRATVVESSEKAYSEAHEISKEHMQPTHPIRLGLALNYSVFYYEIQNAPEQACHLAKTAFDDAIAELDTLNEDSYKDSTLIMQLLRDNLTLWTSDQQDDDGGEGNN
Turning to B2, the binding entry is on record as “binds” in [5]; “no binding” in [6]; “binds” in experiment [7]; “binds” in experiment [1]; “no binding” in experiment [8].

B3: 14-3-3 θ, endogenous (protein, UniProt P27348 1-245)
chain: MEKTELIQKAKLAEQAERYDDMATCMKAVTEQGAELSNEERNLLSVAYKNVVGGRRSAWRVISSIEQKTDTSDKKLQLIKDYREKVESELRSICTTVLELLDKYLIANATNPESKVFYLKMKGDYFRYLAEVACGDDRKQTIDNSQGAYQEAFDISKKEMQPTHPIRLGLALNFSVFYYEILNNPELACTLAKTAFDEAIAELDTLNEDSYKDSTLIMQLLRDNLTLWTSDSAGEECDAAEGAEN
Regarding B3, in experiment [4], the binding result is given as “binds”.

B4: Flag-tagged 14-3-3 θ (protein, UniProt P27348 1-245)
chain: MEKTELIQKAKLAEQAERYDDMATCMKAVTEQGAELSNEERNLLSVAYKNVVGGRRSAWRVISSIEQKTDTSDKKLQLIKDYREKVESELRSICTTVLELLDKYLIANATNPESKVFYLKMKGDYFRYLAEVACGDDRKQTIDNSQGAYQEAFDISKKEMQPTHPIRLGLALNFSVFYYEILNNPELACTLAKTAFDEAIAELDTLNEDSYKDSTLIMQLLRDNLTLWTSDSAGEECDAAEGAEN
For B4, the binding entry in experiment [5] was “binds”; in [6] it was “no binding”; in [7] it was “binds”; in [1], “binds”; in experiment [8], “no binding”.

B5: 14-3-3 protein eta, endogenous (protein, UniProt Q04917 1-246)
chain: MGDREQLLQRARLAEQAERYDDMASAMKAVTELNEPLSNEDRNLLSVAYKNVVGARRSSWRVISSIEQKTMADGNEKKLEKVKAYREKIEKELETVCNDVLSLLDKFLIKNCNDFQYESKVFYLKMKGDYYRYLAEVASGEKKNSVVEASEAAYKEAFEISKEQMQPTHPIRLGLALNFSVFYYEIQNAPEQACLLAKQAFDDAIAELDTLNEDSYKDSTLIMQLLRDNLTLWTSDQQDEEAGEGN
Take B5: the binding result in experiment [4] is on record as “binds”.

B6: Flag-tagged 14-3-3 η (protein, UniProt Q04917 1-246)
chain: MGDREQLLQRARLAEQAERYDDMASAMKAVTELNEPLSNEDRNLLSVAYKNVVGARRSSWRVISSIEQKTMADGNEKKLEKVKAYREKIEKELETVCNDVLSLLDKFLIKNCNDFQYESKVFYLKMKGDYYRYLAEVASGEKKNSVVEASEAAYKEAFEISKEQMQPTHPIRLGLALNFSVFYYEIQNAPEQACLLAKQAFDDAIAELDTLNEDSYKDSTLIMQLLRDNLTLWTSDQQDEEAGEGN
As for B6, the binding result in experiment [5] is “binds”; in experiment [6], “no binding”; in experiment [7], “binds”; in [1] it was “binds”; in experiment [8] it was “no binding”.
